The campaign covered roughly 350,000 compounds. About 9,900 (2.8%) were called active. Inconclusive means that the source gave no clear call. Such entries were picked first, then a sample of the others. The call rests on the fitted dose curve; in most records, active means well fitted activation curve with a large enough effect; inconclusive means small, poorly fitted or top-dose-only effect; inactive means no such curve, though single readings can be large or run the other way. No potency is given beside an inconclusive call; the fits are too rough.
assay: A quantitative high throughput screen for small molecules that induce DNA re-replication in MCF 10a normal breast cells.; further: nearly all actives have a fitted effect of over 50% in size; on activity, positive = re-replication: % of control where 0% means no effect; conditions: MCF 10A DNA re-replication, Hoechst nuclear intensity, 48 h; activity, positive = re-replication: at 46.1 µM (top of the series)
Potency means the concentration at half of the fitted maximal effect; tags describe the fitted curve by direction and shape.

Compound	activity, positive = re-replication	Potency
Cc1sc2ncnc(SCC(=O)NCC3CCCO3)c2c1C (stereo unspecified)	inactive: -4.3%	–
NS(=O)(=O)c1ccc(CCNS(=O)(=O)c2ccc3c(c2)NC(=O)CO3)cc1	inactive: 6.96%	–
O=C1CSC(=S)N1N=Cc1c(O)ccc2ccccc12	–	inconclusive [activator, single point]
CC1CCCN(c2oc(-c3cccc4ccccc34)nc2C#N)C1 (stereo unspecified)	–	inconclusive [activator, single point]
CCOc1c2ccc(C(=O)NCC34CC5CC(CC(C5)C3)C4)cc2nn1CC	inactive: -29.2%	–
CC(=O)N1CCOc2ccc(S(=O)(=O)N(C)c3ccc(C)cc3)cc21	inactive: -2.68%	–
Cn1cc([N+](=O)[O-])c(C(=O)Nc2sc3c(c2C#N)CCC3)n1	–	active: 3.66 µM
CC(=NCCc1c(C)[nH]c2ccc(OC(F)(F)F)cc12)C1=C(O)CC(c2ccccc2)CC1=O (stereo unspecified)	–	active: 8.2 µM
Cc1c(C(=O)Nc2nccs2)sc2nc(-c3cccs3)cc(C(F)(F)F)c12	–	inconclusive [activator, single point]
CC(C)CCOc1ccc(C(=O)NCC(c2ccco2)N(C)C)cc1 (stereo unspecified)	–	inconclusive [activator, single point]
COc1ccc(N(C)S(=O)(=O)c2cccc(C(=O)Nc3cc(OC)ccc3OC)c2)cc1	–	inconclusive [activator, single point]
Cc1ccc(-n2nc(C)c(/C=N/NC(=O)c3cccs3)c2Cl)cc1	–	inconclusive [activator, partial curve, poor fit]
O=C1/C(=C/C=C/c2ccco2)SC(=S)N1c1ccc(O)cc1	inactive: 4.5%	–
Cc1ccc(C(=O)NCC(=O)N2CCCC(C(F)(F)F)C2)s1 (stereo unspecified)	inactive: 8.63%	–
COc1ccc(Cc2c(O)nc(SCC(=O)c3ccc(OC)cc3)[nH]c2=O)cc1	–	inconclusive [activator, single point]
O=C(NCCc1ccccn1)c1nc(Cn2cc(Br)cn2)no1	inactive: -3.23%	–
Cc1nn(-c2ccccc2)c(Cl)c1/C=C/C(=O)c1ccccc1	–	inconclusive [activator, single point]
COc1ccc(CC(=O)NCC(=O)N/N=C/c2c[nH]c3ccccc23)cc1	–	inconclusive [activator, partial curve, poor fit]
CCN(CC(=O)Nc1c(F)cccc1F)C(=O)C1CCN(C(=O)Nc2ccccc2)CC1	inactive: -4.71%	–
C=CCn1c(CCCOc2ccc(Cl)cc2Cl)n[nH]c1=S	–	inconclusive [activator, single point]
Nc1c(-c2ccccc2)nc(Cl)nc1-c1ccccc1	inactive: 9.9%	–
